Assay results published in US20220411514A1, “ANTI-GAL3 ANTIBODIES AND METHODS OF USE FOR INSULIN RESISTANCE” (TrueBinding, Inc., priority 2021, published 2022).

Experiments:
human Gal3 = target: T1, human Gal3 (Homo sapiens, UniProt P17931); test: Epitope binning, sandwich format, SPR Carterra LSA (Example 8); assay type: binding
T1 construct: 6xHis (linker-spaced) (C); purchased AcroBio (Acro Biosystems) GA3-H5129
Procedure: The epitope binning assay was done in a sandwich format on the high-throughput SPR-based Carterra LSA unit (CarterraBio, Salt Lake City, Utah). First, the purified antibodies were diluted to 10 μg/ml concentration in 10 mM NaOAc (pH 5.0) and then were covalently coupled via amine group to HC200M chip activated by EDC and S-NHS to immobilize antibodies to different positions of a 384-spot array. One hundred thirty-eight binning cycles were run on the array of immobilized antibodies. In each cycle, first, human Gal3 (AcroBio GA3-H5129) was injected over the entire array to bind to different antibodies (primary antibody), followed by one antibody (secondary antibody) selected among the panel of 150 anti-GAL3 antibodies tested. At the end of each cycle, the array was regenerated by 10 mM Glycine (pH 2.0) to remove bound antigen and secondary antibody from the array. The data analysis was done using the Epitope software by CarterraBio.

Human Gal3 peptides [1] = target: T2, Human Gal3 peptides (Homo sapiens, UniProt P17931); test: Gal3 peptide binding ELISA (Example 8); conditions: antibody 5 μg/mL
T2 construct: purchased LifeTein custom order
Procedure: (§1) Gal3 peptide binding activity of additional exemplary anti-Gal3 antibodies was assessed with the same peptides as described in FIG. 18 (SEQ ID NOs: 3-26). Human Gal3 peptides (LifeTein, custom order) and human Gal3 proteins (R&D Systems, 8259-GA; TrueBinding, QCB200349) were diluted in PBS (Corning, 21-030-CM) to concentrations of at least 100 μg/mL (peptides) or 1 μg/mL (proteins), and added to the wells of several 96-well ELISA plates (Thermo Fisher, 44-2404-21). After incubating the plates at 4° C. overnight, the plates were washed three times with PBST (PBS with 0.05% Tween 20 [VWR, 0777]). The plates were then blocked for an hour with 2% BSA (EMD Millipore, 126609) in PBST at room temperature with gentle rocking. Thereafter, the 2% BSA in PBST was discarded and Gal3-binding antibodies (reformatted hIgG4 [S228P]) were diluted in 2% BSA in PBST to concentrations of 5 μg/mL and added to the wells. The plates were incubated for an hour at room temperature with gentle rocking and then washed three times with PBST. Afterwards, Peroxidase AffiniPure F(ab′)2 Fragment Goat Anti-Human IgG (H+L) polyclonal antibody (Jackson ImmunoResearch, 109-036-003), was diluted in 2% BSA in PBST (1:4000) and added to the wells. The plates were incubated for 1 hour at room temperature with gentle rocking and then washed three times with PBST. TMB substrate (Thermo Scientific, 34029) was then added to each well. The reaction was stopped with 1M HCl (JT Baker, 5620-02) and read using a plate reader (Molecular Devices) at absorbance of 450 nm.

Human Gal3 peptides [2] = test: Gal3 peptide binding ELISA (Example 8); conditions: antibody 5 μg/mL
Procedure: as §1

T1 sequence (P17931 whole entry): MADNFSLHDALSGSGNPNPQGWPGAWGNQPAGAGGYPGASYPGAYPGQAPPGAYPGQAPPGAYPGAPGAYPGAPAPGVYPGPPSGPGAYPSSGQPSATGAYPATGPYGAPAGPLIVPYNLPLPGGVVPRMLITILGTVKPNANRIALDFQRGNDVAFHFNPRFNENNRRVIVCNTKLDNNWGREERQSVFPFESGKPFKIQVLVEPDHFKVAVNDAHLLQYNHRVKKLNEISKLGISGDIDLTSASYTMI

B1: 847.10C9: anti-Gal3 antibody (antibody, V domains shown)
VH: EVQLQQSGAELVRPGTSVKVSCKASEYAFNNYMMEWVKQRPGQGLEWIGVINPGSGATNYNENFKDKATLTADKSSTTAYMQLSSLTSDDSAVYFCTYNDLGYWGQGTLVTVSA
VL: DVVMTQTPLTLSVTIGQPASISCKSSQSLLYSDGKTYLNWLLQRPGQSPKRLIYLVSQLDSGVPDRFTGSGSGTDFTLKISRVEADDLGVYCCVQGTHLPTFGGGTKLEIK
epitope bin (mutual competitive binding for Gal3) (human Gal3): CRD | binding to Gal3 peptide 2 (SEQ ID NO: 4) (Human Gal3 peptides [1]): bound | binding to Gal3 peptide 3 (SEQ ID NO: 5) (Human Gal3 peptides [1]): bound | binding to Gal3 peptide 9 (SEQ ID NO: 11) (Human Gal3 peptides [1]): bound | binding to Gal3 peptide 10 (SEQ ID NO: 12) (Human Gal3 peptides [1]): bound

B3: F847C.21H6: anti-Gal3 antibody, VH SEQ ID NO: 367, VL SEQ ID NO: 440 (antibody, V domains shown)
VH: QIQLVQSGPELKKPGETVKISCKASGYTFTIFGMNWVKQAPGKGLKWMGWVNTYTGEPTYADDFKGRFAFSLETSASTAYLQINNLKNEDTATYFCARGWFAYWGQGTLVTVSA
VL: DVVMTQTPLTLSVTIGQPASISCKSSRSLLDSDGKTYLNWLLQRPGQSPKRLIYLVSKLDSGVPDRFTGSGSGTDFTLKISRVEAEDLGVYYCWQGTHFPQTFGGGTKLEIN
modifications: VH-71 Peptide Sequence; VL-67 Peptide Sequence
epitope bin (mutual competitive binding for Gal3) (human Gal3): 1 | binding to Gal3 peptide 5 (SEQ ID NO: 7) (Human Gal3 peptides [1]): bound | binding to Gal3 peptide 6 (SEQ ID NO: 8) (Human Gal3 peptides [1]): bound

B5: 849.4B2: anti-Gal3 antibody (antibody, V domains shown)
VH: DGKLQESGPGLVKPSQSLSLTCSVTGYSITSGYYWNWIRQFPGNKLEWMGHISYDGRNNYNPSLKNRISITRDTSKNQFFLKLNSVTTEDTATYYCAGYDFLWYFDVWGTGTTVTVSS
VL: DVGMTQTPLILSVTIGQPASISCKSSQSLLYINGKTYLNWLLQRPGQSPKRLIYLVSKLDSGVPNRFSGSGSGTDFTLKISRVEAEDLGVYYCLQSTHFPQTFGGGTKLEIK
binding to hGAL3 when immobilized on HC200M chip (human Gal3): not bind | binding to any of the tested Gal3 peptides (Human Gal3 peptides [2]): not found to bind

Next, values leading:

binding to any of the tested Gal3 peptides (Human Gal3 peptides [2]): not found to bind
B2: 847.15H11: anti-Gal3 antibody (antibody, V domains shown)
VH: EVQLQQSGAEVVKPGAPVKLSCKASGYTFNNYWLNWVKQRPGRGLEWIGRIDPSDSETHYNQKFKDKATLTVDMSSSTAYIQLSSLTSEDSAVYYCARGDYYYGTRGPMDYWGQGTSVTVSS
VL: DIVLTQSPASLAVSLGQRATISCRASESLDNSGISFMNWFQQRPGQPPKLLIYAASNLESGVPARFSGSGSGTDFSLNIHPMEEDDAAMYFCQHSKEVPWTFGGGTKLEIK

binding to any of the tested Gal3 peptides (Human Gal3 peptides [2]): not found to bind
B4: 846.2B11: anti-Gal3 antibody (antibody)
heavy: QVQLQQSGPELVRPGALVKISCKASGYTFTSYDINWVKQRPGQGLEWIGWIYPGDGSTKYNEKFKGKATLTADKSSSTAYMQLSSLTSENSAVYFCAREAASNAMDYWGQGTSVTVSSASTKGPSVFPLAPCSRSTSESTAALGCLVKDYFPEPVTVSWNSGALTSGVHTFPAVLQSSGLYSLSSVVTVPSSSLGTKTYTCNVDHKPSNTKVDKRV[in this place human IgG4 Fc with S228P (EU numbers)]
light: DIVLTQSPASLGVSLGQRATISCRASKSVSTSGYSYMHWYQQKPGQPPKLLIYLASILESGVPARFSGSGSGTDFTLNIHPVEEEDAAIYYCQHSRELPLTFGAGTKLELKRTVAAPSVFIFPPSDEQLKSGTASVVCLLNNFYPREAKVQWKVDNALQSGNSQESVTEQDSKDSTYSLSSTLTLSKADYEKHKVYACEVTHQGLSSPVTKSFNRGEC
modifications: 846.2B11 heavy chain peptide sequence; 846.2B11 light chain peptide sequence
notes: anti-Gal3 antibody

Each block holds one molecule with its values, some of them ahead of it.
